Test results: publication PMC4336329 (PLoS ONE, 2015)
Out of some 310,000 compounds screened, about 2,200 (0.71%) showed an effect of 50% or more. The effect is printed as a negative number. Some of the results follow.

These compounds were tested against human ether-à-go-go-related gene (hERG) potassium channel (human, UniProt Q12809) (assay: primary screen, population patch clamp on CHO cells stably expressing hERG).
Chain of human ether-à-go-go-related gene (hERG) potassium channel (Q12809 whole entry, looked up): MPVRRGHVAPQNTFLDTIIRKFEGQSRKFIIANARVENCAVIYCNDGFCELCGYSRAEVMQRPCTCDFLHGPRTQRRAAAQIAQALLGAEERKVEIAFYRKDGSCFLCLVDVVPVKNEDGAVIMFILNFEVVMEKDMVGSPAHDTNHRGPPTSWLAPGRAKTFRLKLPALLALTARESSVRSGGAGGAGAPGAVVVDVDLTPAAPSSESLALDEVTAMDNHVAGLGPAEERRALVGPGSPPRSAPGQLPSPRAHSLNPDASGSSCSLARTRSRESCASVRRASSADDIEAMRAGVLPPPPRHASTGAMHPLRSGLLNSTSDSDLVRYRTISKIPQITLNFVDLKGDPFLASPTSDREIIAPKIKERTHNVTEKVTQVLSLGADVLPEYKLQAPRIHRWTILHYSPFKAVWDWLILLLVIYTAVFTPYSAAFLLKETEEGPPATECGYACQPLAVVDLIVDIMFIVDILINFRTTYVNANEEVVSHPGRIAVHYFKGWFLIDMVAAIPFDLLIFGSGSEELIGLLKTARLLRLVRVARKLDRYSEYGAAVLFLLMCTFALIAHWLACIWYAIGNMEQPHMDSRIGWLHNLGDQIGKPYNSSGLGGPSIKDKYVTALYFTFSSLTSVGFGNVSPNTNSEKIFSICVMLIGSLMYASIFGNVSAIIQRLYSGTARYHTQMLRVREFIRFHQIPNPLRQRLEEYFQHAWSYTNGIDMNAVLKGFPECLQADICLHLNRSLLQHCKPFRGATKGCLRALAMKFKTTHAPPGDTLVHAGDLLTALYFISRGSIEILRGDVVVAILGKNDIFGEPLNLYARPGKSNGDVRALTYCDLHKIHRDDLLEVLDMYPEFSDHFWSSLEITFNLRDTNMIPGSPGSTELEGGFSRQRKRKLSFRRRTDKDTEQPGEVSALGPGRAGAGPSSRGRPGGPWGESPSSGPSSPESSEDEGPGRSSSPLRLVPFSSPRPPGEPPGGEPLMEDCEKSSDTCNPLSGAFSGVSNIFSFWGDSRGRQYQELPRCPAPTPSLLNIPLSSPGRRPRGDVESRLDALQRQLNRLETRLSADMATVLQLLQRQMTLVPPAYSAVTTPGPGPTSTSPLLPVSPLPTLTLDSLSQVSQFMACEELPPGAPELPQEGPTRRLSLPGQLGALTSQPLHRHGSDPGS

Row | SMILES | hERG current change (%, negative = inhibition) at 1uM
1 | CCOC(=O)c1ccc(NC(=O)CSc2nc(N3CCOCC3)nc(N3CCOCC3)n2)cc1 | 7.53%
2 | O=C(NCc1ccco1)/C(=C/c1ccccc1F)NC(=O)c1ccccc1 | 18.7%
3 | CC1CCCC(C)N1CC(O)COC1CCC(C(C)(C)C)CC1.Cl (stereo not drawn) | 4.92%
4 | O=C(CCCOc1ccc(Cl)cc1)NCCc1ccccc1 | 12.7%
5 | COc1ccc2c(c1)CC/C(=C\C=C\c1ccccc1OC)C2=O | 10.2%
6 | CNC(=O)c1ccc(CNC(=O)OCc2ccccc2)cc1 | 15.9%
7 | c1ccc(-c2csc3ncnc(NCC4COc5ccccc5O4)c23)cc1 (stereo not drawn) | 11.7%
8 | CCCCn1c(N)c(N(CC(C)C)C(=O)C2CC(=O)N(c3ccc(CC)cc3)C2)c(=O)[nH]c1=O (stereo not drawn) | 23.8%
9 | Cn1c(=O)c(C#N)c(-c2ccc(F)cc2)c2cc(C(=O)c3cc(Cl)cc(Cl)c3O)cnc21 | 16%
10 | COCCCn1c(=O)/c(=C\c2ccccc2OC(C)C)s/c1=C(/C#N)C(=O)Nc1ccc(C(=O)O)cc1 | 9.85%
11 | CC(=O)c1cccc(S(=O)(=O)NC2CC2)c1 | 1.01%
12 | CCN(CC)S(=O)(=O)c1ccc(NC(=O)COC(=O)c2ccc(Br)o2)cc1 | 2.44%
13 | CNC(=O)c1ncnnc1N(C)C(=O)NCc1ccccc1 | -6.97%
14 | Cc1ccc2nc(NC(=O)Cn3cc4c(n3)CCCCC4)sc2c1 | -2.4%
15 | Cc1cccc(OCC(=O)Nc2ccc(CN3CCOCC3)cc2)c1C | 10%
16 | CCOC(=O)/C=c1\s/c(=C\c2ccc3c(c2)OCCO3)c(=O)n1CC(=O)NCC1CCCO1 (stereo not drawn) | 13.6%
17 | O=C(Nc1ccc(S(=O)(=O)NCc2ccco2)cc1)C1CCCCC1 | 8.13%
18 | CC1CCN(CC(=O)N2CCN(c3ccccc3)CC2)CC1 | 12.5%
19 | CC(C)(C)n1ncc2c(=O)n(CC(=O)c3ccc(Cl)cc3)cnc21 | 12.1%
20 | COc1ccc(F)cc1CN1CCN(C(=O)CCC(=O)Nc2nnc(CC(C)C)s2)CC1 | 16.8%
21 | COC(=O)c1cc(NC(=O)CC2CCCC2)cc(C(=O)OC)c1 | 10.1%
22 | Cc1ccc(-c2[nH]c(-c3ccc(Cl)cc3)nc2SCC(=O)NCC2CCCO2)cc1 (stereo not drawn) | 10.3%

Row | SMILES | hERG current change (%, negative = inhibition) at 1uM
23 | Cc1ccccc1NC(=O)CSc1nc2scc(C)c2c(=O)[nH]1 | 12.8%
24 | O=c1c2ccccc2nc(-c2ccco2)n1CCc1ccc(O)cc1 | 16.4%
25 | CCCCNC(=O)c1onc(CSc2ccc(F)c(F)c2)c1C(=O)O | 11%
26 | O=C(Nc1ccccc1C(=O)O)c1cccc(NC(=O)c2ccc(Br)o2)c1 | 13.2%
27 | CCOc1ccccc1N1CC(C(=O)Nc2ccc3c(c2)OCCO3)CC1=O (stereo not drawn) | 13.5%
28 | CC(=NCCCN1CCOCC1)c1c(O)[nH]c(=O)[nH]c1=O | -0.735%
29 | COc1ccc2c(c1)C(=O)c1ccccc1CO2 | 17.9%
30 | CC1(C)CC(=O)C2=C(C1)N(c1ccc(F)cc1)C(=O)C2(O)C(F)(F)F (stereo not drawn) | 1.75%
31 | CN1CCN(C(=O)C2=C[C@H](c3ccc(C(F)(F)F)cc3)C[C@H](OCCCCO)O2)CC1 | -2.81%
32 | CC12C(=O)N(c3ccccc3C(=O)O)C(=O)C1C1C=CC2C1 (stereo not drawn) | 5.95%
33 | COc1ccc(C(=O)CC(=O)C(=O)Nc2ccccc2C(F)(F)F)cc1 | 0.748%
34 | O=C1CCc2cc(S(=O)(=O)N3CCC(C(=O)NC4CCCC4)CC3)ccc2N1 | 3.09%
35 | O=C(CSCc1ccccc1)N=Nc1c(O)[nH]c2ccccc12 | -0.77%
36 | CS(=O)(=O)c1nc(-c2ccccc2)cc(-c2ccccc2)c1C#N | 7.18%
37 | CC(=O)Nc1sc(N/N=C/c2ccccc2F)nc1-c1ccc(C)cc1 | 8.32%
38 | Cc1cc(SCC(=O)N/N=C/c2cccnc2)nc2c(C)cccc12 | 0.949%
39 | COc1ccc(NC(=O)COC(=O)c2ccc(OCc3c(C)noc3C)cc2)cc1OC | 9.12%
40 | COc1ccc2[nH]c(=O)c(C(c3nnnn3C3CCCCC3)N3CCN(C)CC3)cc2c1 (stereo not drawn) | -4.08%
41 | C/C(=N/NS(=O)(=O)c1ccc(Cl)cc1)c1cccc(O)c1 | 5.3%
42 | COc1ccc2[nH]c3c(c2c1)CCN[C@H]3C | 16.2%
43 | COc1ccc(CC(CC(=O)O)C(=O)NCc2ccccc2)cc1 (stereo not drawn) | 27.9%
44 | Cc1ccc(CC(=O)N2CCN(c3ccc([N+](=O)[O-])cc3)CC2)cc1 | -30.4%

Row | SMILES | hERG current change (%, negative = inhibition) at 1uM
45 | O=[N+]([O-])c1cnc(N2CCCCC2)c([N+](=O)[O-])c1 | 14.1%
46 | Clc1cc(Cl)c(OCc2nc(-c3ccccn3)no2)cc1Cl | 2.21%
47 | CC(=NCC1CCCO1)c1c(O)n(-c2ccccc2C)c(=O)[nH]c1=O (stereo not drawn) | 13.7%
48 | CC(=O)NN1C(=O)/C(=C2/Sc3ccc(Cl)cc3N2C)SC1=S | 12.3%
49 | CCc1ccc(S(=O)(=O)c2nnn3c2nc(NCCNC(C)=O)c2ccccc23)cc1 | 11%
50 | CCCCn1c(/C=C/c2ccco2)nc2ccccc21 | 7.23%
51 | COC(=O)C1CCN(C(=O)[C@H](C)NC(=O)C2CC(=O)N(c3ccc(F)cc3)C2)CC1 (stereo partly drawn) | 7.63%
52 | Cc1ccc(/C=N/NC(=O)c2ccco2)s1 | -2.51%
53 | COC(=O)/C=C1\N/C(=N\c2nc(C)cc(C)n2)N(c2ccccc2)C1=O | 12.7%
54 | Cc1ccc(OCCNC(=O)Cc2ccc(S(=O)(=O)N3CCOCC3)s2)cc1 | 7.16%
55 | CCCCCOc1ccc(C(=O)CCN2CCOCC2)cc1.Cl | 9.26%
56 | COc1ccc(C(=O)n2cnnc2N)cc1 | 5.04%
57 | Oc1ccc2ccccc2c1Br | 12.1%
58 | CN(C(=O)C1CCC(=O)N(Cc2ccccc2F)C1)C1CCOCC1 (stereo not drawn) | 12.3%
59 | CNC(=O)/C(C#N)=C/c1c(F)cccc1Cl | 9.76%
60 | CC(N)C12CC3CC(C1)CC(C(C)N)(C3)C2.Cl (stereo not drawn) | 8.36%
61 | O=C(O)CSc1c(-c2ccccc2)[nH]c2ccccc12 | 8.08%
62 | O=c1[nH]c2cc3c(cc2cc1CN(Cc1cccs1)Cc1nnnn1Cc1ccco1)OCCO3 | 1.09%
63 | Cc1cccc(NC(=O)C2CCCN2C(=O)NC2CCCCC2)c1 (stereo not drawn) | 12.5%
64 | COc1cc(NC(=O)c2cc(C(C)C)on2)c(OC)cc1Cl | 8.92%
65 | O=C(NCC(=O)N(Cc1cccs1)C(C(=O)NC1CCCCC1)c1cccnc1)c1ccco1 (stereo not drawn) | 18.2%
66 | Nc1cccc(C(=O)Nc2ccc(N)cc2Cl)c1 | 6.12%

Row | SMILES | hERG current change (%, negative = inhibition) at 1uM
67 | CCOC(=O)C1=CC[C@@H](c2ccco2)N(S(=O)(=O)c2ccc(C)cc2)[C@H]1C(=O)OCC | 11.1%
68 | COc1ccc(-c2cc(=O)n(CCC#N)[nH]2)cc1 | 21.1%
69 | CS(=O)(=O)c1cccc(C(=O)NC(c2ccccc2)c2ccccc2)c1 | 7.5%
70 | CCOCCCNC(=O)Cc1ccc(OC)c(OC)c1 | 7.94%
71 | Cc1onc(-c2c(Cl)cccc2Cl)c1C(=O)N[C@@H]1C(=O)N2[C@@H]1SC(C)(C)[C@@H]2C(=O)[O-].O.[Na+] | 11%
72 | CCN(CC(=O)Nc1ccc2c(c1)OCCO2)C(=O)COc1ccc(C)cc1 | 10.5%
73 | O=C(O)/C=C/c1ccc(S(=O)(=O)Nc2ccccc2C(=O)Nc2ccc(F)cc2)cc1 | 16.6%
74 | CSc1nc(C)c(C(=O)C[n+]2ccccc2C)cc1C#N.[Br-] | -3.09%
75 | COCCNC(=O)C(c1ccc(O)cc1)N(C(=O)CCC(=O)Nc1nccs1)c1ccc(C)cc1 (stereo not drawn) | 17.3%
76 | COC(=O)c1ccc(NC2c3ncccc3C(=O)N2Cc2cccs2)cc1 (stereo not drawn) | 9.95%
77 | CCOc1ccc2[nH]c(=O)c(CN(Cc3ccc(F)cc3)C(=O)c3ccco3)cc2c1 | -17.8%
78 | COc1ccccc1NC(=O)C(=N\O)/C(C)=N/O | 11.6%
79 | C[C@@H](C(=O)NCc1c(F)cccc1Cl)N1C(=O)N2CCc3c([nH]c4ccccc34)[C@@]2(C)C1=O | 4.12%
80 | O=C(CC(Sc1n[nH]c(-c2ccccc2)n1)c1ccccc1)NCc1ccccc1 (stereo not drawn) | -0.228%
81 | CCN(c1ccc(NC(=O)COC(=O)c2ccc3ccccc3n2)cc1)C(C)C | 10.3%
82 | CC1(OC(=O)C2CCCC2)C(=O)C=C2C=C3CCCN3C=C2C1=O (stereo not drawn) | 8.08%
83 | COc1ccccc1NS(=O)(=O)c1cc(NC(=O)CCc2nc3ccccc3c(=O)[nH]2)ccc1C | 4.12%
84 | O=c1[nH][nH]c(=O)c2cc([N+](=O)[O-])ccc12 | 17.4%
85 | CCOc1cc(NC(=S)NC)c(OCC)cc1NC(=O)c1ccc(OC)cc1 | 8.82%
86 | CC(Oc1ccc([N+](=O)[O-])cc1)C(=O)NCCCN1CCOCC1 (stereo not drawn) | 10.3%
87 | Cc1ccccc1Cn1cc(NC(=O)c2cc(C3CC3)on2)cn1 | 0.625%
